In all, about 13,000 compounds were measured (“IFI”: median about 4, highest 2% from about 17 on). Some of the results follow.
Assay: GSK_TCMDC: Inhibition Frequency Index (IFI). The number of non-kinase HTS assays where a compound showed > 50 % inhibition, expressed as a percentage of the number of such assays in which the compound was tested (-0 is zero)
Type: functional

Compound	IFI
O=C(NCCN1CCCC1)c1ccc(-c2ccc(-c3nc4cc(C(F)(F)F)ccc4[nH]3)s2)cc1	7.14%
CC(C)c1ccc(Cn2cc(-c3ccncc3)c3cc(OCc4ccccc4)ccc32)cc1	0.76%
CN1CCC(N2CCN(Cc3cccc(-c4ccc(-c5nc6cc(C(F)(F)F)ccc6[nH]5)cc4)c3)CC2)CC1	9.72%
COc1ccc(-c2ccc(NC(=O)c3ccc(Cl)cc3)cc2)cc1CN1CCNCC1	7.79%
Oc1ccc(CCCNc2nc(NCc3cccc4ccccc34)nc(N3CCNCC3)n2)cc1	7.69%
CCNc1cc(C(=O)N[C@@H](Cc2ccccc2)[C@H](O)CNCc2cccc(OC)c2C)cc(N2CCCCS2(=O)=O)c1	2.17%
CCCNC(=O)Nc1ccc(N(C)c2ccnc(NC3CC3)n2)cc1	5.45%
CCCCCCCN1CCC(CC(=O)Nc2ccnc3ccc(OC)cc23)C(CC)C1 (stereo not drawn)	0%
CCc1cn(C)c2c(N3CCCC3=O)cc(C(=O)N[C@@H](Cc3ccccc3)[C@H](O)CNCc3cccc(OC)c3)cc12	2.94%
O=C(Nc1ccc(Cl)cc1C(=O)Nc1ccncc1)c1ccc(Cl)cc1Cl	2.68%
CCCCOc1ccc(CNCCCCCCNCc2ccc(OCCCC)c3ccccc23)c2ccccc12	17.8%
COc1cc2nccc(Nc3ccc(OCc4ccc(NC(C)=O)cc4)cc3)c2cc1OC	5.84%
CC(C)(C)OC(=O)NCCc1cccc(-c2c[nH]c3ncc(-c4cccc(NS(C)(=O)=O)c4)cc23)c1	12.9%
FC(F)(F)c1cccc(-c2cc(NCCCn3ccnc3)nc(-c3ccncc3)n2)c1	9.38%
CCCCN1CC[C@@H](CCC(O)c2ccnc3ccc(OCCC(C)C)cc23)[C@@H](CC)C1 (stereo partly drawn)	3.55%
Cc1noc(-c2ccc3c(c2)CCN(CCC2CCC(NC(=O)c4cc5ccccc5[nH]4)CC2)CC3)n1 (stereo not drawn)	2.24%
COC(=O)c1ccc2nc(-c3ccc(C(=O)NC4CCN(Cc5ccccc5)CC4)s3)[nH]c2c1	1.5%
FC(F)(F)c1ccc2[nH]c(-c3cccc(-c4cccc(CNCCc5ccncc5)c4)c3)nc2c1	8.82%
Fc1ccc(C=NN=c2cc[nH]c3ccccc23)cc1	4.58%
COc1cc(-c2nc3c4ccccc4c4ccccc4c3[nH]2)cc(OC)c1OC	1.48%
COc1cccc(Nc2c(C(N)=O)cnc3ccc(-c4ccccc4)cc23)c1	5.04%
Cc1cc2nc(-c3ccc(/C=C/C(=O)NCCc4ccccc4)cc3)[nH]c2cc1C	0.75%

Compound	IFI
CC(C)(C)c1ccc(C(=O)Nc2ccc3nc4c(c(N)c3c2)CCCC4)cc1	4.9%
COc1ccc(CCCN2C(=O)C(c3ccccc3)(c3ccccc3)N=C2N)cc1	8.65%
CC1CN(Cc2ccc(-c3ccc(-c4nc5cc(F)ccc5[nH]4)s3)cc2)CC(C)O1 (stereo not drawn)	8.33%
COc1ccc(-c2cc3ncn(CC(=O)N4CCN(c5cccc(OC)c5)CC4)c(=O)c3s2)cc1	5.63%
O=C(/C=C/c1cccc(Cl)c1)N1CCC(C(O)CN2CCC3(CC2)CN(C(=O)/C=C/c2cccc(Cl)c2)c2ccccc23)CC1 (stereo not drawn)	3.7%
Cc1nc(-c2ccc(-c3ccc(C(=O)Nc4ccc(I)c(OCCN5CCCC5)c4)cc3)c(C)c2)no1	6.77%
COc1ccc(-c2ccc(NC(=O)c3cccc(Cl)c3)c(F)c2)cc1CN1CCCN(C)CC1	8.05%
Oc1cc(-c2nc(-c3ccccc3)[nH]c2-c2ccncc2)ccc1Cl	8.39%
CCOC(=O)NC1=NC(C)(C)N(OCCCOc2cc(Cl)c(Cl)cc2Cl)C(NC(=O)OCC)=N1	3.74%
COCCN1CCC(CN(C)CC(C)(C)c2nc(-c3ccc(Cl)c(O)c3)c(-c3ccncc3)[nH]2)CC1	0%
O=C1O[C@H](c2ccccc2)[C@H](c2ccccc2)N(C(=O)OCc2ccccc2)[C@H]1Cc1ccccc1C1CCCC1	1.42%
Cc1cccc(Nc2nc(N[C@@H]3CCCNC3)nc3cc[nH]c(=O)c23)c1	16.7%
CCOc1cc2ncnc(Nc3ccc(OCc4ccccc4Br)c(OC)c3)c2cc1OCC	1.48%
COc1ccc(Nc2nc(NC3CCCC3)cc(-c3ccc(OC)cc3)n2)cc1	4.69%
CC1(C)CCC(C)(C)c2c1ccc(C1CCN(CCCCNC(=O)c3ccc(-c4ccc(C#N)cc4)cc3)CC1)c2O	9.92%
O=C(Nc1ccc(F)cc1)c1cnc(N2CCN(c3ccncc3)CC2)c(Cl)c1	8.51%
Cc1ccc(CNC(=O)[C@H](Cc2ccccc2)Nc2cc(C)nc(NCCc3ccc(F)cc3)n2)cc1	11.4%
Cc1ccc(C)c(S(=O)(=O)Nc2ccc(Br)cc2C(=O)Nc2cccc(C(F)(F)F)c2)c1	21.1%
N=C(N)Nc1cccc(NC(=O)Nc2cccc(NC(=N)N)c2)c1	1.48%
C#Cc1cccc(NC(=O)[C@H](CC2CCCCC2)Nc2ccc(C#N)c3ccccc23)c1	3.77%
Cc1ccccc1C1CCN(c2ccc(C(=O)Nc3ccccc3)cn2)CC1	10.2%
CN1CCC(NCc2ccc(-c3cccc(S(=O)(=O)NCCc4ccccn4)c3)cc2)CC1	1.96%

Compound	IFI
Cc1cc(CN2CCC(N3CC(c4ccccc4)(c4ccccc4)OCC3=O)C2)ccc1O (stereo not drawn)	7.5%
CCN1CCC(N(Cc2ccc(-c3ccc(C(F)(F)F)cc3)cc2)C(=O)Cn2c(CCc3cccc(F)c3F)cc(=O)c3ccccc32)C1 (stereo not drawn)	4.29%
O=C(NCCNc1noc(-c2sccc2Br)n1)c1ccc(Cl)cc1	3.03%
CC(CNC(=O)c1cc2c(Cl)cc(Cl)cc2[nH]1)CNc1cc(=O)c2ccccc2[nH]1 (stereo not drawn)	9.02%
COc1ccc(OC)c(NC(=O)c2c(-c3c(F)cccc3Cl)noc2C)c1	1.45%
CCCC(C(=O)OCCNC)(c1ccccc1)c1ccccc1	3.6%
O=C(Nc1ccc(OC2CCN(Cc3ccco3)C2)c(Cl)c1)c1ccc2ncccc2c1 (stereo not drawn)	3.33%
C=CCOC(=O)N1CCC(CNCc2ccc(-c3ccc(-c4nc5ccccc5[nH]4)s3)cc2)C1 (stereo not drawn)	11%
O=C(Nc1cccc(-c2nn3ccccc3c2-c2ccnc(Nc3ccc(C(=O)N4CCOCC4)cc3)n2)c1)c1c(F)cccc1F	8.59%
CN(C)CCNC(=O)NC1CN(c2ncnc3cc(-c4ccccc4)sc23)C1	2%
c1cc(-c2ccc(CNCCCn3ccnc3)cc2)cc(-c2nc3ccccc3[nH]2)c1	7.62%
CCCC[C@@H](C(=O)NCc1ccccc1C(F)(F)F)N1C(=O)CCC1C(=O)Nc1ccc([N+](=O)[O-])cc1 (stereo partly drawn)	0.74%
COc1ccc(-c2nnc(Sc3ccc(C#N)c([N+](=O)[O-])c3)n2CCC(C)C)cc1	5%
O=C(O)C[C@H](NC(=O)[C@@H]1CCCN1C(=O)c1cccc(-c2ccc(Cl)c(Cl)c2)c1)C(=O)O	0.74%
C=CCOC(=O)N1CCC(CNCc2ccc(-c3cccc(-c4nc5cc(F)ccc5[nH]4)c3)cc2)C1 (stereo not drawn)	2.91%
Oc1cccc(Nc2nc(NCC3CCCO3)c3ccccc3n2)c1 (stereo not drawn)	2.19%
O=c1cc(NCCCNCc2csc(Br)c2Sc2ccc(Cl)cc2)[nH]c2ccccc12	6.38%
CC1(C)NC(=N)N=C(NOCC=Cc2ccccc2)N1	-0%
COc1ccc(NC(=O)/C=C/c2ccc(Oc3ccccc3Cl)c([N+](=O)[O-])c2)cc1OCCN(C(C)C)C(C)C	7.63%
OC(CNCc1ccccc1OCc1ccccc1)c1cc(Br)cs1 (stereo not drawn)	6.06%
NOCCCCOc1cc(Cl)c(Cl)cc1Cl	-0%
NC1CCN(Cc2cccc(-c3ccc(-c4nc5cc(F)ccc5[nH]4)cc3)c2)C1 (stereo not drawn)	4.29%

Compound	IFI
O=c1cc(NCCCNCc2cccc(OC(F)(F)F)c2)[nH]c2ccccc12	2.16%
COc1ccccc1-c1cccc(CNC2CCN(CC3Cn4c(=O)ccc5ccc(F)c3c54)CC2)c1 (stereo not drawn)	7.27%
Clc1ccc(Nc2nc(NCc3ccccc3)nc(N/N=C/c3ccccn3)n2)cc1	10.6%
COc1ccc(Cl)cc1N1CCN(CCCNC(=O)c2ccc(-c3nc4ccc(C(F)(F)F)cc4[nH]3)c(C)c2)CC1	1.46%
CC(CCCCOCCc1ccccc1)NCC(O)c1cc(Cl)c(N)c(Cl)c1 (stereo not drawn)	0.74%
COc1cc(OC)cc(C(=O)Nc2ccc(-c3nc4ccccc4[nH]3)cc2)c1	1.42%
Cc1cc(C2CCN(CCCCNC(=O)c3ccc(NC(=O)c4ccc(Cl)cc4)cc3)CC2)c(C)cc1OCc1ccncc1	3.03%
N#Cc1ccc(CN2CCC(Oc3ccc(NC(=O)c4ccco4)cc3Cl)CC2)cc1	1.56%
O=C(Nc1cccc(-c2ccc(-c3nc4cc(F)ccc4[nH]3)cc2)c1)Nc1ccc(F)c(F)c1F	1.98%
Cc1cc(NCCCCCCNc2cc(C)nc3c(C)cccc23)c2cccc(C)c2n1	3.65%
COc1ccc2nccc([C@@H](O)CN3CCC(NCc4cc5c(Cl)cccc5[nH]4)CC3)c2c1	7.41%
N#Cc1ccc(N2CCN(Cc3cccc(-c4ccc(-c5nc6cc(C(F)(F)F)ccc6[nH]5)cc4)c3)CC2)nc1	16.2%
Cc1cc(Cl)c(Cl)cc1NC(=O)Nc1cccc(C(F)(F)F)c1	6.52%
O=C(Nc1ccc2c(c1)CCN(C1CCC1)CC2)c1ccc(-n2ccnc2)cn1	1.46%
COc1ccc(CNC2CCN(C)CC2)cc1-c1cccc(S(=O)(=O)NCc2ccccc2)c1	11%
COc1ccc(S(=O)(=O)N(c2cc(Br)cc3c2OCC3)S(=O)(=O)c2ccc(OC)c(N3CCN(C)CC3)c2)cc1N1CCN(C)CC1	6.52%
CCS(=O)(=O)Nc1ccc2[nH]cc(C3CCN(CCC4CCN(C(=O)/C=C/c5ccc(Cl)c(Cl)c5)CC4)CC3)c2c1	7.97%
OC(CNCc1ccccc1Oc1ccccc1)c1cc(Br)cs1 (stereo not drawn)	5.79%
COc1ccccc1CN1CCC(NC(=O)c2ccc(-c3ccc(N(C)C)cc3)s2)CC1	14%
Oc1ccc(Nc2nc(NCc3ccco3)c3ccccc3n2)cc1	8.7%
O=C(Nc1cc(Cl)ccc1O)c1cc(-c2ccccc2O)no1	10.3%
CC(=O)Nc1cccc(CNCc2ccc(-c3cnc(N4CCCC(c5ccccc5)C4)nc3)cc2)c1 (stereo not drawn)	5.41%

Source: ChEMBL document CHEMBL1157539, “Thousands of chemical starting points for antimalarial lead identification” (Nature, 2010)
